MIC of clinical N. gonorrhoeae isolates (2015-2017) by agar dilution on GC agar with 1% IsoVitaleX (ranges not stated); higher = less susceptible. No active / inactive call per row; the paper counts benzylpenicillin above 1 and ceftriaxone above 0.125 mg/L as resistant (EUCAST). The method is stated for benzylpenicillin and ceftriaxone and assumed for the other drugs. '<=' is inferred from pile-ups at the end values. Isolates are numbered anew.

MIC data for 25 test systems are collected here from the supplement of paper PMC6657886.

Holding throughout (assay): Agar dilution on enriched GC agar; resistance determinants by microarray.
In general terms: Agar dilution tests growth on a series of plates holding different concentrations.

Compound in experiment [1]: CN(C)[C@@H]1C(O)=C(C(N)=O)C(=O)[C@@]2(O)C(O)=C3C(=O)c4c(O)cccc4[C@@](C)(O)[C@H]3C[C@@H]12 [tetracycline]
Compound in experiment [2]: CC[C@H]1OC(=O)[C@H](C)[C@@H](O[C@H]2C[C@@](C)(OC)[C@@H](O)[C@H](C)O2)[C@H](C)[C@@H](O[C@@H]2O[C@H](C)C[C@H](N(C)C)[C@H]2O)[C@](C)(O)C[C@@H](C)CN(C)[C@H](C)[C@@H](O)[C@]1(C)O [azithromycin]
Compound in experiment [3]: CN[C@@H]1[C@H](O)[C@H](NC)[C@H]2O[C@@]3(O)C(=O)C[C@@H](C)O[C@H]3O[C@@H]2[C@H]1O [spectinomycin]
Compound in experiment [4]: CO/N=C(\C(=O)N[C@@H]1C(=O)N2C(C(=O)O)=C(CSc3nc(=O)c(O)nn3C)CS[C@H]12)c1csc(N)n1 [ceftriaxone]
Compound in experiment [5]: CC1(C)S[C@@H]2[C@H](NC(=O)Cc3ccccc3)C(=O)N2[C@H]1C(=O)O [benzylpenicillin]

As for “Neisseria gonorrhoeae isolate 266 (blaTEM plasmid: no, gyrA: wild type, mtrR promoter: wild type, parC: wild type, penA: ins345Asp, ponA: wild type, porB: wild type, rpsJ: Met57, tetM plasmid: no)”, the MIC – broadly, the lowest concentration that inhibits growth of the organism – in experiment [1] is 0.5 µg/mL; in experiment [2], 0.015 µg/mL; in experiment [3], 4 µg/mL; in experiment [4], at most 0.002 µg/mL; in experiment [5] it was 0.25 µg/mL.

“Neisseria gonorrhoeae isolate 455 (blaTEM plasmid: no, gyrA: wild type, mtrR promoter: wild type, parC: Arg87, Glu91, penA: wild type, ponA: wild type, porB: wild type, rpsJ: Met57, tetM plasmid: no)”: the MIC is 0.5 µg/mL in experiment [1]; 0.004 µg/mL in experiment [2]; 32 µg/mL in experiment [3]; at most 0.002 µg/mL in experiment [4]; at most 0.015 µg/mL in experiment [5].

Take “Neisseria gonorrhoeae isolate 54 (blaTEM plasmid: no, gyrA: Phe91, Gly95, mtrR promoter: wild type, parC: Arg87, Glu91, penA: ins345Asp, ponA: Pro421, porB: Asp120, Ala121, rpsJ: wild type, tetM plasmid: no)”: the MIC in experiment [1] stood at 0.25 µg/mL; in experiment [2], 0.015 µg/mL; in experiment [3] it was 32 µg/mL; in experiment [4], 0.004 µg/mL; in experiment [5] it was 0.25 µg/mL.

Consider “Neisseria gonorrhoeae isolate 500 (blaTEM plasmid: no, gyrA: Phe91, Asn95, mtrR promoter: -35delA, parC: Arg87, Glu91, penA: ins345Asp, ponA: Pro421, porB: Asn120, Asp121, rpsJ: Met57, tetM plasmid: no)”, for which the MIC in experiment [1] came out at 2 µg/mL; in experiment [2], 1 µg/mL; in experiment [3], 16 µg/mL; in experiment [4], 0.03 µg/mL; in experiment [5] it was 2 µg/mL.

Turning to “Neisseria gonorrhoeae isolate 221 (blaTEM plasmid: yes, gyrA: Phe91, Asp95, mtrR promoter: wild type, parC: wild type, penA: ins345Asp, ponA: wild type, porB: wild type, rpsJ: Met57, tetM plasmid: yes)”, the MIC in experiment [1] is 16 µg/mL; in experiment [2], 0.12 µg/mL; in experiment [3], 32 µg/mL; in experiment [4], at most 0.002 µg/mL; in experiment [5], at least 32 µg/mL.

Regarding “Neisseria gonorrhoeae isolate 228 (blaTEM plasmid: no, gyrA: wild type, mtrR promoter: wild type, parC: wild type, penA: wild type, ponA: wild type, porB: wild type, rpsJ: wild type, tetM plasmid: no)”, the MIC in experiment [1] was 0.12 µg/mL; in experiment [2] it was 0.06 µg/mL; in experiment [3] it was 16 µg/mL; in experiment [4], at most 0.002 µg/mL; in experiment [5] it was at most 0.015 µg/mL.

“Neisseria gonorrhoeae isolate 511 (blaTEM plasmid: yes, gyrA: Phe91, Asp95, mtrR promoter: wild type, parC: wild type, penA: ins345Asp, ponA: wild type, porB: wild type, rpsJ: Met57, tetM plasmid: yes)”: the MIC in experiment [1] is 16 µg/mL; in experiment [2], 0.06 µg/mL; in experiment [3] it was 8 µg/mL; in experiment [4], at most 0.002 µg/mL; in experiment [5] it was at least 32 µg/mL.

Consider “Neisseria gonorrhoeae isolate 96 (blaTEM plasmid: no, gyrA: Phe91, Gly95, mtrR promoter: wild type, parC: Arg 87, Glu91, penA: ins345Asp, ponA: Pro421, porB: Lys 120, Gly121, rpsJ: Met57, tetM plasmid: no)”, for which the MIC in experiment [1] was 1 µg/mL; in experiment [2], 0.12 µg/mL; in experiment [3] it was 16 µg/mL; in experiment [4], at most 0.002 µg/mL; in experiment [5] it was 2 µg/mL.

Take “Neisseria gonorrhoeae isolate 418 (blaTEM plasmid: no, gyrA: wild type, mtrR promoter: wild type, parC: Arg87, Glu91, penA: wild type, ponA: wild type, porB: wild type, rpsJ: wild type, tetM plasmid: no)”: the MIC in experiment [1] was 0.06 µg/mL; in experiment [2] it was 0.03 µg/mL; in experiment [3], 8 µg/mL; in experiment [4], at most 0.002 µg/mL; in experiment [5], at most 0.015 µg/mL.

On to “Neisseria gonorrhoeae isolate 128 (blaTEM plasmid: no, gyrA: wild type, mtrR promoter: wild type, parC: wild type, penA: wild type, ponA: wild type, porB: wild type, rpsJ: wild type, tetM plasmid: no)”, for which the MIC in experiment [1] is 1 µg/mL; in experiment [2], 0.03 µg/mL; in experiment [3], 16 µg/mL; in experiment [4] it was at most 0.002 µg/mL; in experiment [5], 0.03 µg/mL.

As for “Neisseria gonorrhoeae isolate 143 (blaTEM plasmid: no, gyrA: Phe91, Asp95, mtrR promoter: wild type, parC: wild type, penA: ins345Asp, ponA: Pro421, porB: Asp120, Gly121, rpsJ: Met57, tetM plasmid: yes)”, the MIC in experiment [1] is 2 µg/mL; in experiment [2], 0.03 µg/mL; in experiment [3], 32 µg/mL; in experiment [4], 0.008 µg/mL; in experiment [5] it was 1 µg/mL.

Consider “Neisseria gonorrhoeae isolate 95 (blaTEM plasmid: no, gyrA: Phe91, Asn95, mtrR promoter: wild type, parC: Ser87, Gly 91, penA: ins345Asp, ponA: Pro421, porB: Asp120, Gly121, rpsJ: Met57, tetM plasmid: no)”, for which the MIC in experiment [1] was determined as 1 µg/mL; in experiment [2], 0.06 µg/mL; in experiment [3], 32 µg/mL; in experiment [4] it was 0.004 µg/mL; in experiment [5], 0.25 µg/mL.

As to “Neisseria gonorrhoeae isolate 487 (blaTEM plasmid: no, gyrA: wild type, mtrR promoter: wild type, parC: wild type, penA: wild type, ponA: wild type, porB: wild type, rpsJ: wild type, tetM plasmid: no)”, the MIC in experiment [1] is 0.25 µg/mL; in experiment [2], 0.12 µg/mL; in experiment [3], 32 µg/mL; in experiment [4], at most 0.002 µg/mL; in experiment [5] it was at most 0.015 µg/mL.

“Neisseria gonorrhoeae isolate 259 (blaTEM plasmid: no, gyrA: wild type, mtrR promoter: wild type, parC: wild type, penA: ins345Asp, ponA: wild type, porB: wild type, rpsJ: wild type, tetM plasmid: no)”: the MIC is 0.25 µg/mL in experiment [1]; 0.06 µg/mL in experiment [2]; 16 µg/mL in experiment [3]; at most 0.002 µg/mL in experiment [4]; 0.03 µg/mL in experiment [5].

Take “Neisseria gonorrhoeae isolate 22 (blaTEM plasmid: no, gyrA: wild type, mtrR promoter: wild type, parC: wild type, penA: wild type, ponA: wild type, porB: wild type, rpsJ: wild type, tetM plasmid: no)”: the MIC is 0.12 µg/mL in experiment [1]; 0.06 µg/mL in experiment [2]; 16 µg/mL in experiment [3]; at most 0.002 µg/mL in experiment [4]; 0.03 µg/mL in experiment [5].

Consider “Neisseria gonorrhoeae isolate 274 (blaTEM plasmid: no, gyrA: Phe91, Asn95, mtrR promoter: -35delA, parC: wild type, penA: ins345Asp, ponA: Pro421, porB: Asn120, Asp121, rpsJ: Met57, tetM plasmid: no)”, for which the minimal inhibitory concentration (MIC) in experiment [1] was determined as 0.5 µg/mL; in experiment [2] it was 0.12 µg/mL; in experiment [3], 8 µg/mL; in experiment [4] it was 0.008 µg/mL; in experiment [5], 1 µg/mL.

Take “Neisseria gonorrhoeae isolate 405 (blaTEM plasmid: no, gyrA: wild type, mtrR promoter: wild type, parC: wild type, penA: ins345Asp, ponA: wild type, porB: wild type, rpsJ: wild type, tetM plasmid: no)”: the MIC in experiment [1] is 0.5 µg/mL; in experiment [2] it was 0.5 µg/mL; in experiment [3], 32 µg/mL; in experiment [4], at most 0.002 µg/mL; in experiment [5], 0.06 µg/mL.

As for “Neisseria gonorrhoeae isolate 17 (blaTEM plasmid: no, gyrA: wild type, mtrR promoter: wild type, parC: wild type, penA: wild type, ponA: wild type, porB: wild type, rpsJ: wild type, tetM plasmid: no)”, the MIC is 0.25 µg/mL in experiment [1]; 0.12 µg/mL in experiment [2]; 16 µg/mL in experiment [3]; at most 0.002 µg/mL in experiment [4]; at most 0.015 µg/mL in experiment [5].

Consider “Neisseria gonorrhoeae isolate 114 (blaTEM plasmid: no, gyrA: Thr91, Gly95, mtrR promoter: wild type, parC: wild type, penA: ins345Asp, ponA: wild type, porB: wild type, rpsJ: wild type, tetM plasmid: no)”, for which the MIC in experiment [1] is 0.25 µg/mL; in experiment [2], 0.03 µg/mL; in experiment [3], 16 µg/mL; in experiment [4] it was at most 0.002 µg/mL; in experiment [5], 0.12 µg/mL.

“Neisseria gonorrhoeae isolate 235 (blaTEM plasmid: no, gyrA: wild type, mtrR promoter: wild type, parC: wild type, penA: ins345Asp, ponA: wild type, porB: wild type, rpsJ: wild type, tetM plasmid: no)”: the MIC in experiment [1] is 0.5 µg/mL; in experiment [2], 0.015 µg/mL; in experiment [3], 16 µg/mL; in experiment [4], 0.004 µg/mL; in experiment [5], at most 0.015 µg/mL.

As to “Neisseria gonorrhoeae isolate 37 (blaTEM plasmid: no, gyrA: wild type, mtrR promoter: wild type, parC: wild type, penA: wild type, ponA: wild type, porB: wild type, rpsJ: wild type, tetM plasmid: no)”, the MIC is 0.5 µg/mL in experiment [1]; 0.12 µg/mL in experiment [2]; 16 µg/mL in experiment [3]; at most 0.002 µg/mL in experiment [4]; at most 0.015 µg/mL in experiment [5].

With “Neisseria gonorrhoeae isolate 182 (blaTEM plasmid: no, gyrA: wild type, mtrR promoter: wild type, parC: wild type, penA: ins345Asp, ponA: Pro421, porB: wild type, rpsJ: wild type, tetM plasmid: no)”, the MIC is 0.5 µg/mL in experiment [1]; 0.12 µg/mL in experiment [2]; 16 µg/mL in experiment [3]; at most 0.002 µg/mL in experiment [4]; 0.12 µg/mL in experiment [5].

Consider “Neisseria gonorrhoeae isolate 186 (blaTEM plasmid: no, gyrA: wild type, mtrR promoter: wild type, parC: wild type, penA: wild type, ponA: wild type, porB: wild type, rpsJ: wild type, tetM plasmid: no)”, for which the minimal inhibitory concentration (MIC) in experiment [1] is 0.25 µg/mL; in experiment [2] it was 0.015 µg/mL; in experiment [3], 32 µg/mL; in experiment [4], at most 0.002 µg/mL; in experiment [5], at most 0.015 µg/mL.

For “Neisseria gonorrhoeae isolate 242 (blaTEM plasmid: no, gyrA: Phe91, Asn 95, mtrR promoter: -35delA, parC: Arg87, Glu91, penA: ins345Asp, ponA: Pro421, porB: Lys120, Gly121, rpsJ: Met57, tetM plasmid: no)”, the MIC came to 2 µg/mL in experiment [1]; 1 µg/mL in experiment [2]; 32 µg/mL in experiment [3]; 0.032 µg/mL in experiment [4]; 1 µg/mL in experiment [5].

As for “Neisseria gonorrhoeae isolate 124 (blaTEM plasmid: no, gyrA: wild type, mtrR promoter: wild type, parC: wild type, penA: wild type, ponA: wild type, porB: wild type, rpsJ: wild type, tetM plasmid: no)”, the MIC in experiment [1] is 0.12 µg/mL; in experiment [2], 0.06 µg/mL; in experiment [3], 16 µg/mL; in experiment [4] it was at most 0.002 µg/mL; in experiment [5], at most 0.015 µg/mL.
